# Data as given in PMC4336329 (PLoS ONE, 2015).
# Among all 310,000 compounds or so, about 14,000 (4.5%) showed an effect of 50% or more. The effect is printed as a negative number. This is one part of the list.
# Molecular target: human ether-à-go-go-related gene (hERG) potassium channel (human, UniProt Q12809)
# Experiment: primary screen, population patch clamp on CHO cells stably expressing hERG
# 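Also: peak tail current of the secondary pulse compared with the same well before compound.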
# Sequence of human ether-à-go-go-related gene (hERG) potassium channel (Q12809 whole entry, looked up): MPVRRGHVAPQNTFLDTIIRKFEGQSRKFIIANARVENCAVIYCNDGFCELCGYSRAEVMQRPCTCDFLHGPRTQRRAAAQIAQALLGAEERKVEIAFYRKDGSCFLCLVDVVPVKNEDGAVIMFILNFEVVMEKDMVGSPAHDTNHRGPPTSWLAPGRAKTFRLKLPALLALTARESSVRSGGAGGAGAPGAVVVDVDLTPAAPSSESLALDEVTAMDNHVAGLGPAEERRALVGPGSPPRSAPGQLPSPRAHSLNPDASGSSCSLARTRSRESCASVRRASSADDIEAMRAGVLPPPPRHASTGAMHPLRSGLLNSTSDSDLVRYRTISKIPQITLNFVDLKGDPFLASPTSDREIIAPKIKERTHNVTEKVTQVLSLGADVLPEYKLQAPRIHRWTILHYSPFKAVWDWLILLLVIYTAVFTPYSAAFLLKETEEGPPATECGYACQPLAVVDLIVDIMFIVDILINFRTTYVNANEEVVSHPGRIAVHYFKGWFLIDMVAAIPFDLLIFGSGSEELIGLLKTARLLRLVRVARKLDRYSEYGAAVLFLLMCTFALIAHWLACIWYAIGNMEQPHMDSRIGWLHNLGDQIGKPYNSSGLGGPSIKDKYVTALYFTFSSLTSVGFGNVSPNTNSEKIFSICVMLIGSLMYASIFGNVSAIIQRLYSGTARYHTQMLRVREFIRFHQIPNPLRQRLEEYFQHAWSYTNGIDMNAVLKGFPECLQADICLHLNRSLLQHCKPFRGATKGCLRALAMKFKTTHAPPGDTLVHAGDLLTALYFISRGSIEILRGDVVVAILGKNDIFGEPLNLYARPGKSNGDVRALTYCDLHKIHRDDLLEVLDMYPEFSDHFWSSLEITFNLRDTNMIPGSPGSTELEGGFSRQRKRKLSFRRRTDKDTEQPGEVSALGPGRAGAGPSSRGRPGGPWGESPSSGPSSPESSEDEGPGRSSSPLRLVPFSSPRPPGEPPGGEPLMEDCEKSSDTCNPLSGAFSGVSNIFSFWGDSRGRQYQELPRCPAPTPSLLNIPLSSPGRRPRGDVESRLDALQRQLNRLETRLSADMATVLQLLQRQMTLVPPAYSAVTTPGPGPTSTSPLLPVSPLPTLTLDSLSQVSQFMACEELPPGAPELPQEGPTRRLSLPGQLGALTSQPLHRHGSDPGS
row,SMILES,"hERG current change (%, negative = inhibition) at 10uM [%]"
1,CCn1c(SCC(=O)Nc2ccccc2)nnc1C1CCCCC1,9.8
2,Oc1ccc(-c2nccc(-c3ccc(F)cc3)n2)cc1,17.6
3,O=C(O)CC(NC(=O)c1ccccc1NC(=O)c1ccccc1)C(=O)O (stereo not drawn),10.2
4,COC(=O)c1c(NC(=O)C(=O)NCCCN2CCOCC2)sc2c1CCCC2,-11.6
5,CCCN1CCN(CCCNC(=O)c2ccc3nc(N4CCC(C)CC4)sc3c2)CC1,-50.7
6,CCCCCCCN1CCN=C1Nc1ccccc1,-58
7,CN(C1=C(N2CCCCC2)C(=O)c2ccccc2C1=O)c1ccccc1,8.22
8,CC(C)CCN1CCN(Cc2cccn2-c2cccnc2)CC1CCO (stereo not drawn),-32.5
9,Cc1noc(NC(=O)c2ccccc2)c1C#N,11.8
10,O=C(CSc1n[nH]c(-c2ccc(S(=O)(=O)N3CCCCC3)cc2)n1)Nc1nccs1,0.555
11,Clc1ccc2[nH]c3c(NCCCN4CCOCC4)ncnc3c2c1,-69.9
12,CCc1ccccc1N(C)C(=O)CCc1nc(-c2ccc(C)cc2)no1,-0.297
13,CCOc1ccc(-c2nnn(CC(=O)c3ccc4c(c3)OCCO4)n2)cc1OCC,-1.86
14,Clc1ccc(Oc2cnc3ccccc3n2)cc1,-2.92
15,C(=N\n1cnnc1)/c1cn(Cc2ccccc2)c2ccccc12,14.9
16,CC(C)CN(C(=O)c1ccc2c(c1)OCO2)C1CCS(=O)(=O)C1 (stereo not drawn),-3.84
17,Cc1ccc(S(=O)(=O)Nc2ccc(Cl)cn2)cc1C,15
18,Cc1cc(C)c2nc(C(F)(F)F)nc(N3CC(C)OC(C)C3)c2c1 (stereo not drawn),12
19,Cc1ccc(C(=O)Nc2ccncc2)c(Cl)c1,4.14
20,O=C(CN1C(=O)NC2(CCCCC2)C1=O)NCCc1c[nH]c2ccccc12,13.6
21,CCOC(=O)/C(=N\Nc1ccc(Cl)cc1)c1csc(Nc2ccccc2)n1,5.88
22,COc1ccc(-c2[nH]ncc2-c2csc(C)n2)c(O)c1,15.2
23,CCOC(=O)Nc1sc2c(c1C#N)CCC(C)C2 (stereo not drawn),8.9

row,SMILES,"hERG current change (%, negative = inhibition) at 10uM [%]"
1,O=C(OCCOc1cccc(Cl)c1)c1ccc(F)c(S(=O)(=O)N2CCOCC2)c1,0.127
2,CCOc1ccc(C(=O)CCC(=O)Nc2ccccc2C)cc1,9.46
3,COC(=O)c1c(NC(=O)c2cccnc2)sc(C(=O)N(C)C)c1C,5.5
4,CCCC(c1nnnn1Cc1ccc(OC)cc1)N1CCN(C(=O)c2ccco2)CC1 (stereo not drawn),-51.3
5,COc1cc(C(c2c(C)[nH][nH]c2=O)c2c(C)[nH][nH]c2=O)ccc1OC(=O)c1cccc([N+](=O)[O-])c1,10.4
6,O=C(OCN1C(=O)c2ccccc2C1=O)c1cccnc1SC(F)F,-6.46
7,Cc1cc(C(=O)N/N=C/c2ccco2)c2ccccc2n1,1.37
8,Cc1ccc(SCCNC(=S)Nc2ccccc2)cc1,0.545
9,COc1ccc(S(=O)(=O)N2CCN(CC(O)CN3CCOCC3)CC2)cc1 (stereo not drawn),9.52
10,CC(NC(=O)CNC(=S)N(Cc1ccccc1)Cc1cccnc1)c1ccccc1 (stereo not drawn),3.93
11,CN1CCN(c2nc(-c3ccco3)cc(C(F)(F)F)n2)CC1,-62.8
12,COc1ccccc1-c1ccc(SCc2ccccc2)nn1,-29.2
13,COc1cccc(C(=O)Nc2cccc(C(=O)NC3=NN(c4c(Cl)cc(Cl)cc4Cl)C(=O)C3)c2)c1,6.82
14,COc1ccc(OC)c(NC(=O)c2ccccc2OC(C)=O)c1,10.8
15,Cc1nc2nc(-c3cccs3)[nH]c2cc1Br,-3.94
16,CC1(C)CC(=O)CC(C)(C)N1OC(=O)c1ccco1,-0.117
17,COc1cccc2cc(C(=O)N3CCN(C(=O)c4ccccc4)CC3)c(=O)oc12,7.71
18,Cc1ccc(NC(=O)C2CCCN2C(=O)OCc2ccccc2)cc1F (stereo not drawn),-12.4
19,O=C(Oc1ccc(-c2nnco2)cc1)c1ccco1,11.3
20,C=CCn1c(SCC(=O)Nc2ccc3c(c2)CCC3)nnc1-c1cccs1,-76.9
21,OC(COC(c1ccccc1)c1ccccc1)CN1CCN(c2cccc(Cl)c2)CC1 (stereo not drawn),6.16
22,C=CCn1c(SCC(=O)Nc2ncc(Cc3cc(C(F)(F)F)ccc3Cl)s2)nnc1-c1ccncc1,11.1
